Experimental findings from paper PMC12136788 are described below.

The list shows a part of the results.

First the molecules themselves.
B1: chr19:7360422:7360423:-_ENSMUSG00000024969_ENSMUST00000032557|mus_hu|FALSE|FALSE (ssRNA)
RNA: GGGAGUUCUACAGUCCGACGAUCAUAAGGGGGACUGCCACAGAAGGUGUCCAGCUUGUUCCCAAAGGUGAAUUCAUUGCUGAAGCCAAAGUCUGCAAUCUUGAUGUUCAUAUCAGCAUCCAAGAGCAGGUUUUCUGCCUUUAACAACAGAGGAUUGAGCAUCA
B2: chr5:37680062:37680063:+_ENSMUSG00000029121_ENSMUST00000031004|mus_hu|mus_mus_mus_hu_False|8_58 (ssRNA)
RNA: GGGAGUUCUACAGUCCGACGAUCUUUGGGUGUAGCUGGUACCUCGUACACAGGACCGUCAUACAUGCCCCUGGAAACACUAUGCAAUCCAAAAACCUUAUUCCUGAUUUUGACGCGCUGGUACAGGUGCUCUGGGAACGCCUUCAACAGAGGAUUGAGCAUCA
B3: chr17:87533601:87533602:+_ENSMUSG00000037104_ENSMUST00000041369|mus_mus|motif|central (ssRNA)
RNA: GGGAGUUCUACAGUCCGACGAUCUGUUGAGUGUGGGCUCACAGGGGCGGUAUGCUGUUUAAUCAAAUGCCACUUUUGUGCGGAAUCCGAGCCAGCAGGAAAAGGGCAUUUCUCCAGCAUUAAUUCAGAAAGAUGUAUUUUUCUCAACAGAGGAUUGAGCAUCA
B4: chr11:110355629:110355630:+_ENSMUSG00000020623_ENSMUST00000020949|mus_mus|motif|central (ssRNA)
RNA: GGGAGUUCUACAGUCCGACGAUCAUGGAUAACAGACAGCUUACUGUGUAAAUGUUCUAACGCUUUUACAAUAGAAACUGCGGUCUUUCCUAAGAUAUCCUCUGGAAUUGUUUGGCCUUUAUCAAUAACUUGUUUGUAGAAUUUCAACAGAGGAUUGAGCAUCA
B5: chr7:151048522:151048523:+_ENSG00000013374_ENST00000566856|hu_mus|hu_hu_hu_mus_True|1_1 (ssRNA)
RNA: GGGAGUUCUACAGUCCGACGAUCCUGUUUCUUAUUUAUUACGAUCUUGAUGUAAUUUUCUUGAAAUCCGAAAGUUUCAGCUAUUUGACACCUCAGGUCUCUACCAGUGACAUGCAAGCGGGUCUCCAACAAGCUUUUCCUAUCCAACAGAGGAUUGAGCAUCA
B6: chr1:129365822:129365823:+_ENSMUSG00000036155_ENSMUST00000038361|mus_mus|FALSE|FALSE (ssRNA)
RNA: GGGAGUUCUACAGUCCGACGAUCGUUUAAGAUGGCUUUUACUGCAUCUUCUACUUCCUCUCGGUUAUUGAGAUCCACAGUCCAGACGUGUGGCCGGCCGAUGAAGACUUCUGCGUAAGGAUGCUGGGAUGUCAGCUCUCUCAGCAACAGAGGAUUGAGCAUCA
B7: chr8:67197462:67197463:-_ENSMUSG00000031604_ENSMUST00000034015|mus_hu|FALSE|FALSE (ssRNA)
RNA: GGGAGUUCUACAGUCCGACGAUCCUGAAAUGACCAGUAUAUAUCUAAAAGAUUUAAAGACCCAAUGUGAACUUCAGGCCUAUGGUUUUACUGGGAGAAAAGCCAUAGAUUAAUACUUCUAGUAUCCAAAACCUUCUUGGAAGCCAACAGAGGAUUGAGCAUCA
B8: chr1:66488090:66488091:+_ENSMUSG00000015222_ENSMUST00000077355|mus_mus|FALSE|FALSE (ssRNA)
RNA: GGGAGUUCUACAGUCCGACGAUCCACCUUUCAUUUCUAGAUCAGCGUAUGUGUAUCCCCACAAAAGUGGUGUCCAAAAAGCUUAAUUUGAGUCAUUAUCUUAAGAGAGUAGGUAAGGUGAGCUCCAUCCCACAUUCCCAUAAGCAACAGAGGAUUGAGCAUCA
B9: chr17:65740002:65740003:+_ENSG00000130935_ENST00000581375|hu_hu|hu_hu_hu_mus_False|1_78 (ssRNA)
RNA: GGGAGUUCUACAGUCCGACGAUCAACAAAUCUUUCUUCCCUGGACGAACAGGAAGACAUAAAAGAGAAAAAAUAUAUAUCCAUCAAGUUAGGUGUGGUGGCCACACCUUUACUCCCAGCACUUUGGGAGGUGGAUCCUCUAUUCAACAGAGGAUUGAGCAUCA
B10: chr13:100200628:100200629:-_ENSMUSG00000052727_ENSMUST00000064762|perfect_dup|motif|central (ssRNA)
RNA: GGGAGUUCUACAGUCCGACGAUCGUCACCAGGUGUCUUCCCUCCACUGUCCUUCUCCAGGCCAGGUGUGGACAAAUCUCGGUUCAAGGCUAGAUGGUGUUGCAUUGUAUCGAAUAACACUGAGGCACGGAAGCCAUAGGGCUCCAACAGAGGAUUGAGCAUCA
B11: 100650496_100650616_7947_3pUTR_ENSMUSG00000023032_ENSMUST00000023776|mouse|control|control (ssRNA)
RNA: GGGAGUUCUACAGUCCGACGAUCGAAGGUUUAUACAGUUUCUAGGAAUCGGAAAUUUAUCUCAGAUAAAACAAAGUGUGCAAUGGGUGAAAUGUGUGGGACCAGAAGGUCUAACAGGAAAGCUAAGACCUGAUGUGGCUGAUCCAACAGAGGAUUGAGCAUCA
B12: chr16:45382771:45382772:-_ENSMUSG00000022661_ENSMUST00000163230|mus_mus|motif|central (ssRNA)
RNA: GGGAGUUCUACAGUCCGACGAUCGAGAGUGUUAUUGUGGGCCCAAUGGAUAGGGAGAGCAUGCUUUUGUAAAGAUGUGAACGGCUCACUAAGACUAACAAUAUUGCCUAAGUGCUAUAAAAAUAAGUUAAAUGGACACAUUACCAACAGAGGAUUGAGCAUCA
B13: chr10:110404880:110404881:-_ENSMUSG00000035798_ENSMUST00000041723|mus_hu|FALSE|FALSE (ssRNA)
RNA: GGGAGUUCUACAGUCCGACGAUCGUUUUUGUGAUACUUGUCACCAAGGUUAACUGAAACAUUGAAUGUUAAAAGCAAUCUAGUUGGAUCCACACUAUGUGUUCUAUAUGCUGCCCACAUUAAAGGCGUCAUUCCAUUCUGAUCCAACAGAGGAUUGAGCAUCA
B14: chr2:136540380:136540381:+_ENSG00000144224_ENST00000272638|hu_mus|FALSE|FALSE (ssRNA)
RNA: GGGAGUUCUACAGUCCGACGAUCGGAGUUUCCAUUCCAAGUGUUGUUCUCGUCUUCACCGUCAUCUUGAGUCCUCAGUCUGUAUAUUUUCCCUUCUUUUUUAAAGUCUUCCCCUCGUUUUUCCAGCAUUCUUUUUCGGACUGGCAACAGAGGAUUGAGCAUCA
B15: chr14:66974463:66974464:+_ENSMUSG00000022044_ENSMUST00000074523|mus_hu|mus_mus_mus_hu_False|18_58 (ssRNA)
RNA: GGGAGUUCUACAGUCCGACGAUCUUGUAGGACGACUUAUUCAGGGGAUCGGCCAGGAAGCAGGAGCAGAACAAGGACACUAGUGGGAGCUCCUUCAUCUUCUCUUUGUAGGCAGCAAGAGUCAUGUUUCUGGGAUCUGGUGGCCAACAGAGGAUUGAGCAUCA
B16: chrX:101971874:101971875:+_ENSG00000158301_ENST00000332262|hu_mus|motif|central (ssRNA)
RNA: GGGAGUUCUACAGUCCGACGAUCUAUAGUGAGAUGUCUAAGCAUCCUCAUUCCAGUUAGCUGUUCAGGGGAAUUCACGCGGUGUGAAAGUGUCUCCUCACACACUUGACAAAUAAAUGUCUCAAUCAUGUUUAGAUUUGGAUACAACAGAGGAUUGAGCAUCA
B17: chr7:54825262:54825263:-_ENSG00000132432_ENST00000352861|hu_hu|hu_hu_hu_mus_False|1_8 (ssRNA)
RNA: GGGAGUUCUACAGUCCGACGAUCCUGCCGGCUGGGCUCCACAAACUGCAUUACCUGAUCCAUGUUUGUUGGAUGGCGGAUUGAGAGCGUAGAGACACGUAGCUCAGGAGAGAACCGAGCCCAACGGCACCGGAACCGGAAUCCCAACAGAGGAUUGAGCAUCA
B18: chr8:109707966:109707967:+_ENSMUSG00000031924_ENSMUST00000034400|mus_mus|FALSE|FALSE (ssRNA)
RNA: GGGAGUUCUACAGUCCGACGAUCAAUUUACUUAAAAAGAAAAAUGGGAAAAGAUUCAUAACCUGACUGCUGUUCCCUUAACUAUAUCUACUAUGAAUUCAAAUUAUGAGAAAUCAUGUACUGUCCCCAAAGGCCAUGUCACUACAACAGAGGAUUGAGCAUCA
B19: 109580411_109580531_113_CDS_ENSMUSG00000031916_ENSMUST00000034391|mouse|control|control (ssRNA)
RNA: GGGAGUUCUACAGUCCGACGAUCCUCACGCCACUGAGCUUCGGGGAAGCGGUCCCGGAAUAGCGACGCCAGGAGGCCCUCAUCUUCCACCUCCCCCAGCGCGACGGCCGUGGCUGUCGUCGUGGCCGAAGCGGUCGUGGAGGGCAACAGAGGAUUGAGCAUCA
B20: chr11:79252212:79252213:+_ENSMUSG00000020716_ENSMUST00000071325|mus_hu|FALSE|FALSE (ssRNA)
RNA: GGGAGUUCUACAGUCCGACGAUCACUAGAAGGAAUAUCACAUCCUACCCCGUAAAAAAGGAGAAAGUGACAGGAACUUCUAUCUGCCUGCUUAUUUUUAAGAAGAAAUUUAUUCCUGCAGAUCAAUAUUUCCCGCAACCACUUCAACAGAGGAUUGAGCAUCA
B21: chr12:39756943:39756944:-_ENSG00000139116_ENST00000544797|hu_mus|hu_hu_hu_mus_False|8_38 (ssRNA)
RNA: GGGAGUUCUACAGUCCGACGAUCGGUUUGGCUGUUACCCCCAAGGGAAUCCUGCAAGAGUCUUGUCAGCUUAGAGUCUCUGUAAGGGACAUGGGUGGCCCUCUUGCUCUUGUCCCCCAAGGCGCUGAUUACAUUGCCAAGAGCCAACAGAGGAUUGAGCAUCA
B22: 120563640_120563760_5777_3pUTR_ENSMUSG00000090100_ENSMUST00000028740|mouse|control|control (ssRNA)
RNA: GGGAGUUCUACAGUCCGACGAUCUAUAUAAUUUACCAUGAAAGACAUGCAAGCAGUACUGCAGUAACUGUUAUACAAUAUAAUACAUAAGGAUCAGUCUCCAGUAUUACAGCUGUAAUAGAUAAACAACAAAUGCGCCUUACCCAACAGAGGAUUGAGCAUCA

The target in the assay is T1, UNK ZnF1-3 (human, UniProt Q9C0B0 31-174).
T1 sequence: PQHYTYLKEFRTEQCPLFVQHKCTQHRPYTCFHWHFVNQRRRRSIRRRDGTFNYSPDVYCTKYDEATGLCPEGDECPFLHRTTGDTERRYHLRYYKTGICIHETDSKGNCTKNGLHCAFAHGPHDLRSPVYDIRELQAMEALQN
Briefly: nsRBNS (natural sequence RNA bind-n-seq); RBNS binding buffer (assumed for nsRBNS): 25 mM Tris pH 7.5, 150 mM KCl, 3 mM MgCl2, 0.01% Triton X-100, 500 ug/ml BSA, 20 U/ml SUPERase-In, 4 C; UNK is unkempt and MSI1 is Musashi-1; names of the RNAs are library labels; protein concentration not given here; high values mean tight binding.
The molecule B1 displayed a binding signal of 0.562 enrichment R. The result for B2 reads 0.718 enrichment R. The result for B3 reads 0.512 enrichment R; that for B4, 0.491 enrichment R. Regarding B5, the binding signal worked out at 0.759 enrichment R. The result for B6 reads 0.574 enrichment R. Take B7: the binding signal was 1.05 enrichment R. The result for B8 reads 0.686 enrichment R.

Molecule B9 came in with a binding signal of 1.1 enrichment R. The result for B10 reads 1.1 enrichment R; that for B11, 1.82 enrichment R; that for B12, 2.47 enrichment R.

Regarding B13, the binding signal was 0.636 enrichment R. The value for B14 was 0.389 enrichment R; that for B15 was 2.28 enrichment R; that for B16 was 1.02 enrichment R.

With B17, the binding signal worked out at 1.2 enrichment R.

B18 had a binding signal of 1.5 enrichment R. Molecule B19 came in with a binding signal of 0.618 enrichment R. The value for B20 was 1.29 enrichment R; that for B21 was 0.813 enrichment R; that for B22 was 1.09 enrichment R.
